In all, about 310,000 compounds went through this assay and about 14,000 (4.5%) showed an effect of 50% or more. Effects have a minus sign here. This is one part of the list.
Biological target: human ether-à-go-go-related gene (hERG) potassium channel (human, UniProt Q12809)
Experiment: primary screen, population patch clamp on CHO cells stably expressing hERG
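Also: peak tail current of the secondary pulse compared with the same well before compound.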

Chain of human ether-à-go-go-related gene (hERG) potassium channel (Q12809 whole entry, looked up): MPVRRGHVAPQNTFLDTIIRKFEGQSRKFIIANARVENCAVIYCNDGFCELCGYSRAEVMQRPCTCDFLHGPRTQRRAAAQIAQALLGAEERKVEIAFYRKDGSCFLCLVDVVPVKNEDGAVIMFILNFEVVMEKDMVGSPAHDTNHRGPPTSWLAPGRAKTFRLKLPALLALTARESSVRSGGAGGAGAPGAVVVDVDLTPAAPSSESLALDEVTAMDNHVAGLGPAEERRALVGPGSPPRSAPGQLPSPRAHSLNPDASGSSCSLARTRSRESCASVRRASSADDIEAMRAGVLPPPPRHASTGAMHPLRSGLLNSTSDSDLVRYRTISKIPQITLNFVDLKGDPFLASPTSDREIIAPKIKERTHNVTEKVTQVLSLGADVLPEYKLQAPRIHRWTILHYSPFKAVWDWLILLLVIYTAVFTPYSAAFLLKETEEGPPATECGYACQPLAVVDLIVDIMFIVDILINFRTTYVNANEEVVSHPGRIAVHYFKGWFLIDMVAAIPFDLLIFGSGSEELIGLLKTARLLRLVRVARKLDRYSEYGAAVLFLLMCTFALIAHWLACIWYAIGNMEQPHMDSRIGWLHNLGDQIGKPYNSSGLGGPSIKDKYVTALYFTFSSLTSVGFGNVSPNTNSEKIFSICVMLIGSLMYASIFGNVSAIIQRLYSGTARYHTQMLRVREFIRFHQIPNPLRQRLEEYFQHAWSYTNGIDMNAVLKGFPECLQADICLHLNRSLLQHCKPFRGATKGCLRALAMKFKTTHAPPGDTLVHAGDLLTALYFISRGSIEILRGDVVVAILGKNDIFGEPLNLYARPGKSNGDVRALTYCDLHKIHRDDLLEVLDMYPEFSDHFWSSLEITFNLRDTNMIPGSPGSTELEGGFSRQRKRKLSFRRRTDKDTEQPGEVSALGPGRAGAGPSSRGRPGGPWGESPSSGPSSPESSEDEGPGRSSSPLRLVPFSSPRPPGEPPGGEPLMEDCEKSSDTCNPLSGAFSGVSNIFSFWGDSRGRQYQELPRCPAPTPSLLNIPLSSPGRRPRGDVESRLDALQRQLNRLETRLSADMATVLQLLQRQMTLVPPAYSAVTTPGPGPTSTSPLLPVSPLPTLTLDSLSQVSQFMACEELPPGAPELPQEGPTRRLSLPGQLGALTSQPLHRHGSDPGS

Row | Compound | hERG current change (%, negative = inhibition) at 10uM
1 | CC(C)Cc1csc(NC(=O)c2ccccc2Cl)c1C(=O)O | 9.58%
2 | Cc1occc1C(=O)N/N=C/C=C/c1ccc(N(C)C)cc1 | -20.1%
3 | CCOC(=O)CSc1nnc(Cc2ccc(OC)cc2)n1-c1ccccc1 | 1.35%
4 | Clc1ccccc1-c1nnc2sc(-c3ccco3)nn12 | -21.8%
5 | O=C(CNC1CCCCCC1)Nc1ccccc1N1CCOCC1.O=C(O)C(=O)O | -1.46%
6 | CC(C)NC(=O)NC(=O)COC(=O)c1ncc(Cl)c(Cl)c1Cl | 22.6%
7 | CC/C(=N\NC(C)=O)c1ccc(OC(F)F)cc1 | 20.4%
8 | COc1ccc(CNc2ccc([N+](=O)[O-])cc2C)cc1 | -7.16%
9 | Cc1ccc(NNC(=O)C2CCC2)cc1C | -16.6%
10 | COC(=O)c1ccccc1NC(=O)C1COc2ccccc2O1 (stereo not shown) | -12.4%
11 | O=C(O)C1CCN(S(=O)(=O)c2ccc3c(c2)OCCCO3)CC1 | 18.9%
12 | CN(C)C(=S)Oc1ccccc1-c1ccccc1OC(=S)N(C)C | 12.6%
13 | O=C(NCc1ccc2c(c1)OCO2)C1CCC(=O)N1C1CCCC1 (stereo not shown) | -6.48%
14 | Cc1nn(CC(=O)Nc2cc(S(=O)(=O)N3CCOCC3)ccc2Cl)c(C)c1[N+](=O)[O-] | 14.4%
15 | CN(C)S(=O)(=O)N1CCN(C(=O)N2CCCCCC2)CC1 | -12.2%
16 | CCOC(=O)c1cccc(NC(=O)COc2ccc([N+](=O)[O-])cc2)c1 | -68%
17 | NC(=O)CC[C@@H]1NC(=O)[C@H](CO)NC(=O)c2cc([N+](=O)[O-])cc(I)c2NCC[C@@H](C(N)=O)NC(=O)[C@H](Cc2ccc(O)cc2)NC1=O | 15.5%
18 | O=C(O)c1ccc(CS(=O)(=O)Cc2ccccc2F)o1 | 7.86%
19 | CC1=C(C(=O)OCc2ccc3c(c2)OCO3)C(c2ccccc2)NC(=O)N1 (stereo not shown) | -43.6%
20 | Cc1ccc(S(=O)(=O)N2CCN(C(=O)CC(C)n3cncn3)CC2)cc1 (stereo not shown) | 1.17%
21 | NS(=O)(=O)c1ccc(NC(=S)N2CCN(Cc3ccc4c(c3)OCO4)CC2)cc1 | 2.93%
22 | Cc1ccc(CNC(=O)Cc2csc(Nc3nc(=S)[nH]c4ccccc34)n2)cc1 | 6.18%

Row | Compound | hERG current change (%, negative = inhibition) at 10uM
23 | CCN(CC)S(=O)(=O)c1ccc(F)cc1 | -5.33%
24 | Cc1ncc(C[n+]2csc(CCO)c2C)c(N)n1.Cl.[Cl-] | 15.3%
25 | O=C1C=C(c2cccc(Cl)c2)C[C@@H](c2ccc3c(c2)OCO3)C1 | 1.92%
26 | CCOC(=O)CNC(=O)c1cccnc1.Cl | -0.177%
27 | O=C(Cn1cccc1)N1CCc2ccccc21 | 3.12%
28 | O=C1NN(c2ccccc2)C(=O)/C1=C\c1ccccc1OCC(=O)N1CCOCC1 | 1.33%
29 | COCCNc1nc(N)c([N+](=O)[O-])c(NCC2CCCO2)n1 (stereo not shown) | 5.65%
30 | CN(C(=O)CSc1nnc(Cc2ccccc2F)n1N)C1CCS(=O)(=O)C1 (stereo not shown) | 9.76%
31 | CCOc1ccc(NC(=O)CN2CC(c3ccccc3)CC2=O)cc1 (stereo not shown) | -19.9%
32 | O=C(COC(=O)c1ccc2ccccc2n1)NC1CCCCC1 | 13.9%
33 | COc1cc(/C=N/NC(=S)NC2CC3CC2C2C=CCC32)ccc1O (stereo not shown) | -9.29%
34 | O=C(CSc1nc2nc(-c3cccs3)cc(C(F)(F)F)c2c(=O)[nH]1)C(F)(F)F | -1.89%
35 | C/C(=N\NC(=S)NCc1ccccc1)c1ccc2ccccc2c1OC(F)F | -17.5%
36 | O=C(c1cnn2c(C(F)F)cc(-c3ccccc3)nc12)N1CCSCC1 | -9.35%
37 | Cc1ccc(N(CC(=O)N/N=C/c2cccs2)S(C)(=O)=O)cc1Cl | -6.46%
38 | COc1ccc(NC(=O)CN(C)S(=O)(=O)c2ccc3c(c2)c(=O)n(C)c(=O)n3C)cc1 | -9.53%
39 | O=C(Nc1nncs1)C1c2ccccc2Oc2ccccc21 | 12.9%
40 | Cc1cccn2c(=O)c(C=O)c(N3CCCCC3)nc12 | -6.39%
41 | CCC(C)[C@H](NC(=O)C1CC(=O)N(c2ccc3c(c2)OCCO3)C1)C(=O)NC1CCCC1 (stereo partly shown) | 26.6%
42 | C=CCOC(=O)C1=C(C)Nc2nnnn2C1c1ccc(OC)cc1OC (stereo not shown) | 5.97%
43 | O=S(=O)(Nc1ccc2c(c1)OCCO2)c1c(F)cccc1F | 3.4%
44 | CCOc1ccc(-c2cc(C)[n+](CCN3CCOCC3)c(-c3ccc(OCC)cc3)c2)cc1.[O-][Cl+3]([O-])([O-])[O-] | -41.4%

Row | Compound | hERG current change (%, negative = inhibition) at 10uM
45 | C=CCC1(CC=C)CCCN1C(=O)CC1C(=O)NCCN1Cc1cccc(OC)c1OC (stereo not shown) | 1.62%
46 | CCn1ncc(Br)c1C(=O)N(C)C12CC3CC(CC(C3)C1)C2 | -9.56%
47 | O=c1c(O[C@H]2O[C@@H](CO)[C@H](O)[C@@H](O)[C@@H]2O)c(-c2ccc(O)cc2)oc2cc(O)cc(O)c12 | 15.9%
48 | CCn1c(COc2ccccc2C)nnc1SCC(=O)N1CCC(C)CC1 | -24.2%
49 | Cc1ccc(CCNC(=O)CNS(=O)(=O)c2ccc3nc(C)sc3c2)cc1 | 2.53%
50 | Cc1cc(C(=O)NNC(=O)c2cccc(Cl)c2)no1 | 5.13%
51 | CCNC(=O)c1c(NC(=O)C2COc3ccccc3O2)sc2c1CCCC2 (stereo not shown) | 17.6%
52 | Cc1cccnc1NC(=S)Nc1ccc(F)cc1F | 16%
53 | CCCN(CCC)C(=O)Cn1c(=O)n(CCCCC(=O)NC2CCCC2)c(=O)c2ccccc21 | -12.8%
54 | Oc1ccc(Cl)c(Cl)c1 | 16.7%
55 | C/C(=N/NC(=O)c1ccc(C(C)(C)C)cc1)c1cccnc1 | -12.4%
56 | O=C(O)c1sccc1OCc1ccccc1 | 13.4%
57 | CCN(CC)C(=O)CSc1nc2sc3c(c2c(=O)n1CCCOC)CCC3 | -22.6%
58 | CCOC(=O)c1nn(-c2ccccc2C)c(=O)c(C#N)c1C | 22.8%
59 | Cc1cccc(NC(=O)CCN2C(=O)C3C4C=CC(C4)C3C2=O)c1 (stereo not shown) | 13.6%
60 | Cc1sc2ncn(CC(=O)NCC(=O)N3CCN(c4ccc(F)cc4)CC3)c(=O)c2c1C | -12.5%
61 | C=CCOc1ccc(/C(O)=C2/C(=O)C(=O)N(CCCn3ccnc3)C2c2cccs2)cc1 (stereo not shown) | 17%
62 | COc1ccccc1NC(=O)C1CC(O)CN1C(=O)Oc1ccccc1 (stereo not shown) | 12.8%
63 | Cc1cc(C)nc(SCc2c(F)cccc2Cl)n1 | 3.23%
64 | CCN(CC)S(=O)(=O)c1cccc(C(=O)NC(C)C(c2cccs2)N2CCCC2)c1 (stereo not shown) | -8.94%
65 | CCc1ccc(NC(=S)NNC(=O)c2ccccc2OC(F)F)cc1 | 10.6%
66 | COc1cccc(C(=O)N2CCC(n3nccc3NC(=O)CCOc3ccccc3)CC2)c1 | -0.0371%

Row | Compound | hERG current change (%, negative = inhibition) at 10uM
67 | O=C(CCNC(=O)N1CC(=O)Nc2ccccc21)NCc1ccc(F)cc1 | 19.5%
68 | CCOC(=O)C(NCc1ccco1)(NC(=O)c1ccccc1)C(F)(F)F (stereo not shown) | 9.86%
69 | O=C(Cn1[nH]c(=O)c2ccccc2c1=O)NCC1COc2ccccc2O1 (stereo not shown) | -45%
70 | CN(C)c1ccnc(NCc2ccccc2)c1C#N | -29.5%
71 | Cl.O=C(CN1CCCCC1)c1ccc(F)cc1 | 1.94%
72 | CN1C(=O)[C@H]2[C@@H](C3CC3)N3C(=O)CN(Cc4ccccc4)C(=O)[C@@]3(C)[C@H]2C1=O | -2.79%
73 | O=S(=O)(NC1CCCC1)c1ccc(S(=O)(=O)N2CCc3ccccc32)cc1 | -8.79%
74 | O=C(O)C(=O)O.OCCNCCOc1ccccc1-c1ccccc1 | -9.43%
75 | CCCCCN(C(=O)CCC(=O)OC(C)C(=O)c1ccc(Cl)cc1)c1c(N)n(CCCC)c(=O)[nH]c1=O (stereo not shown) | -18.2%
76 | Cn1c(=O)[nH]c(=O)c2c1nc(CN1CCN(c3ccc(F)cc3)CC1)n2CCc1ccccc1 | -27%
77 | CN1C(=O)NC(NC(=O)c2ccco2)(C(F)(F)F)C1=O (stereo not shown) | -2.74%
78 | O=C(c1ccc(-c2ccccc2Cl)s1)N1CCOCC1 | -14.4%
79 | O=C(NNS(=O)(=O)c1ccc(Cl)cc1)c1cccc(S(=O)(=O)N2CCOCC2)c1 | 28%
80 | CC(C)(C)c1ccc(OCC(=O)O/N=C(\N)c2ccncc2)cc1 | 4.08%
81 | Cc1ccc(C)c(NS(=O)(=O)c2cc(C(=O)NCCSC3CCCCC3)ccc2C)c1 | -4.71%
82 | O=C1[C@@H]2Cc3ccccc3CN2C(=O)N1c1cccc(F)c1 | -1.7%
83 | O=C(c1cc2ccccc2oc1=O)N1CCCC1 | 19%
84 | CCCNC(=O)c1ccc(Cn2cc(C(F)(F)F)ccc2=O)cc1 | -0.62%
85 | Cc1cccc(C(=O)N2CCN(Cc3nc4sc5c(c4c(=O)[nH]3)CCCC5)CC2)c1 | -58.4%
86 | C=CCNC(=S)N/N=C/c1ccc(-c2cccc([N+](=O)[O-])c2)o1 | 7.38%
87 | Cc1ccc(C)c(S(=O)(=O)Nc2ccc(O)c(C(=O)O)c2)c1 | 12.2%
88 | Cc1ccc(C(=O)Cn2nnc(-c3ccccc3-n3cnnn3)n2)cc1 | -0.628%
